Measurements published in article PMC4336329 (PLoS ONE, 2015).
Out of some 310,000 compounds screened, about 14,000 (4.5%) showed an effect of 50% or more. Effects have a minus sign here. Some of the results follow.

biological target: human ether-à-go-go-related gene (hERG) potassium channel (human, UniProt Q12809); test: primary screen, population patch clamp on CHO cells stably expressing hERG
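Note: peak tail current of the secondary pulse compared with the same well before compound.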

Chain of human ether-à-go-go-related gene (hERG) potassium channel (Q12809 whole entry, looked up): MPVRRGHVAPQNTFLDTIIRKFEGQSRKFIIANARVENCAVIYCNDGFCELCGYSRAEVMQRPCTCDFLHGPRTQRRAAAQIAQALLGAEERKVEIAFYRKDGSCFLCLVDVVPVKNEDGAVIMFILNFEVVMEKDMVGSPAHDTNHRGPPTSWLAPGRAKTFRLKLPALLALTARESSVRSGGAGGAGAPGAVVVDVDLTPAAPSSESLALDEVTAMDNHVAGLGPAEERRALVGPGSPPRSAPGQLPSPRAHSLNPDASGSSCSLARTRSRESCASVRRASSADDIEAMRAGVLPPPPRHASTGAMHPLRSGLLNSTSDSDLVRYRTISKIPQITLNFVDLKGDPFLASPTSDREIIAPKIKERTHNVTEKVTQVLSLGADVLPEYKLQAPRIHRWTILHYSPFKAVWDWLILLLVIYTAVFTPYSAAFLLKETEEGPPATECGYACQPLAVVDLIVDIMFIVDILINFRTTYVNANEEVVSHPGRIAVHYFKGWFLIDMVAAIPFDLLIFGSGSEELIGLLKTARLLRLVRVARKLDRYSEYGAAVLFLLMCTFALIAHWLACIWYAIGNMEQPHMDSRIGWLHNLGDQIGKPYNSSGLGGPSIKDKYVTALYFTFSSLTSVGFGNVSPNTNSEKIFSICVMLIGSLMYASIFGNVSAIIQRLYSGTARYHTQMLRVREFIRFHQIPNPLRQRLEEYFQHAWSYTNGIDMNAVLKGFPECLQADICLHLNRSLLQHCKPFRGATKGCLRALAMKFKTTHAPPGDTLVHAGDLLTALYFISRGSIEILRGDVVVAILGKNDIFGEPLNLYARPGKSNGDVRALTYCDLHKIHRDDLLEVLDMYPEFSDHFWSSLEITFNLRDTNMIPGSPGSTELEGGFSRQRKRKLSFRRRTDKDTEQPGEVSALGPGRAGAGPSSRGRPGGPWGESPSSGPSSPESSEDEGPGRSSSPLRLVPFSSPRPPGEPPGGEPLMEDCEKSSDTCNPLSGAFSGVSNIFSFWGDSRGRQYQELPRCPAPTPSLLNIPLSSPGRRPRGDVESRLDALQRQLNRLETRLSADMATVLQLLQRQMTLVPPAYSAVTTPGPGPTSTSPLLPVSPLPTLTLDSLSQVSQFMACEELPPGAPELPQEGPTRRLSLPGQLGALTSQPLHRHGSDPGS

Q: With NC(=NCCc1ccccc1)NS(=O)(=O)c1ccc(F)cc1 as the compound, how does the “hERG current change (%, negative = inhibition) at 10uM” value read?
A: 18.5%

Q: Which “hERG current change (%, negative = inhibition) at 10uM” value does the source give for Cc1cc(C)c(C)c(S(=O)(=O)N2CCC(C(=O)N3CCCC3)CC2)c1C here?
A: -25.8%

Q: Which “hERG current change (%, negative = inhibition) at 10uM” value does the source give for CCOc1ccc(NC(=S)c2ccncc2)cc1 here?
A: 11.8%

Q: How did the “hERG current change (%, negative = inhibition) at 10uM” value turn out when C/C(=N\NC(=O)CC1N=C(Cc2ccccc2)NNC1=O)c1ccc(Cl)cc1Cl (stereo not drawn) was run?
A: -8.9%

Q: Which “hERG current change (%, negative = inhibition) at 10uM” value does the source give for Cc1c(Cl)c([N+](=O)[O-])nn1CCCC(=O)NC(C)c1ccccc1 (stereo not drawn) here?
A: -13.5%

Q: How did the “hERG current change (%, negative = inhibition) at 10uM” value turn out when CC1CN(C(=O)CCC(=O)NCc2ccc(Cl)cc2)c2ccccc2S1 (stereo not drawn) was run?
A: -36.8%

Q: For Cc1ccc(C(CCN)c2ccco2)cc1 (stereo not drawn), which “hERG current change (%, negative = inhibition) at 10uM” value is on record?
A: -2.63%

Q: Which “hERG current change (%, negative = inhibition) at 10uM” value does the source give for Cc1ccc(SCCC(=O)Nc2ccccc2C(=O)NC2CCCCC2)cc1 here?
A: 10.8%

Q: For Cc1ccc(OCCN2C(=O)c3ccccc3C2=O)c([N+](=O)[O-])c1, which “hERG current change (%, negative = inhibition) at 10uM” value is on record?
A: 0.511%

Q: For Cc1noc(C)c1CSc1nnnn1-c1ccc(Cl)cc1, which “hERG current change (%, negative = inhibition) at 10uM” value is on record?
A: -20.5%

Q: For COC(=O)C1=C(c2ccc(F)cc2OCc2ccccc2)C[C@@H]2CC[C@H]1N2C(=O)NCCCOC(C)C, which “hERG current change (%, negative = inhibition) at 10uM” value is on record?
A: -12.9%

Q: For COc1ccc2[nH]c(=O)c(CN(CC3CCCO3)C(=S)Nc3ccccc3)cc2c1 (stereo not drawn), which “hERG current change (%, negative = inhibition) at 10uM” value is on record?
A: -14.6%

Q: How did the “hERG current change (%, negative = inhibition) at 10uM” value turn out when Cc1ccc(OCCC(=O)OCC(=O)NCCc2ccc(Cl)cc2)cc1 was run?
A: 20.8%

Q: With Cc1cc(C)c(C#N)c(SCC2COc3ccccc3O2)n1 (stereo not drawn) as the compound, how does the “hERG current change (%, negative = inhibition) at 10uM” value read?
A: 14.6%

Q: For N#CCC(=O)NC1CCC(CC2CCC(NC(=O)CC#N)CC2)CC1 (stereo not drawn), which “hERG current change (%, negative = inhibition) at 10uM” value is on record?
A: 16.2%

Q: For Cc1ccccc1Nc1nc(N)nc(CSc2nnnn2C)n1, which “hERG current change (%, negative = inhibition) at 10uM” value is on record?
A: 12%

Q: With COc1cc2c(cc1OC)C(C)N(C(=O)CCNC(=O)c1ccccc1)CC2 (stereo not drawn) as the compound, how does the “hERG current change (%, negative = inhibition) at 10uM” value read?
A: 15.1%

Q: For O=C(O)c1ccc(C(=O)Nc2ccc(F)cc2)cc1, which “hERG current change (%, negative = inhibition) at 10uM” value is on record?
A: 13.5%

Q: Which “hERG current change (%, negative = inhibition) at 10uM” value does the source give for COc1cccc(NC(=O)Cn2nc(Cc3cccnc3)c3ccccc3c2=O)c1 here?
A: -34.6%

Q: For Cc1noc(C)c1C(=O)OCC(=O)NC(=O)NC12CC3CC(CC(C3)C1)C2, which “hERG current change (%, negative = inhibition) at 10uM” value is on record?
A: 8.78%

Q: CCCCn1c(O)c(C(CC)=NCc2ccc3c(c2)OCO3)c(=O)[nH]c1=O was tested. Which “hERG current change (%, negative = inhibition) at 10uM” value did it give?
A: -46.4%

Q: COc1ccc(-c2nnc(SCC(=O)N3CCCCC3)o2)cc1OC was tested. Which “hERG current change (%, negative = inhibition) at 10uM” value did it give?
A: -8.03%

Q: With CCn1c(SCC(=O)NCc2ccco2)nnc1-c1cccs1 as the compound, how does the “hERG current change (%, negative = inhibition) at 10uM” value read?
A: -8.86%

Q: For CC1=CS/C(=C(/C#N)C(=O)NCc2ccco2)N1c1ccccc1, which “hERG current change (%, negative = inhibition) at 10uM” value is on record?
A: 1.79%

Q: COc1ccc(S(=O)(=O)N(C(=O)c2ccco2)c2cc3sc(=O)oc3c3ccccc23)cc1 was tested. Which “hERG current change (%, negative = inhibition) at 10uM” value did it give?
A: 12.3%

Q: For COC(=O)c1ccccc1NC(=O)C1(S(=O)(=O)c2ccc(Cl)cc2)CC1, which “hERG current change (%, negative = inhibition) at 10uM” value is on record?
A: -17.9%

Q: For Nc1nc(SCC(=O)N2CCCCC2)[nH]c(=O)c1NC(=O)c1ccccc1F, which “hERG current change (%, negative = inhibition) at 10uM” value is on record?
A: 19.7%

Q: For O=c1c2[nH]cnc2n(-c2cccc(Br)c2)c(=O)n1Cc1ccccc1, which “hERG current change (%, negative = inhibition) at 10uM” value is on record?
A: -19.3%

Q: Which “hERG current change (%, negative = inhibition) at 10uM” value does the source give for COCCNC(=O)C(=O)N/N=C/c1cccs1 here?
A: 21.1%

Q: Which “hERG current change (%, negative = inhibition) at 10uM” value does the source give for Oc1ccc(Cc2ncc(C(F)(F)F)cc2Cl)cc1 here?
A: -15.4%

Q: With CCOC(=O)c1c(NC(=O)COC(=O)CCS(=O)(=O)c2ccc(C)cc2)sc(C)c1C as the compound, how does the “hERG current change (%, negative = inhibition) at 10uM” value read?
A: -12%

Q: NC(=O)Cn1cc(/C=N/NC(=O)c2ccc(Cn3cc(Cl)cn3)o2)c(-c2ccccc2)n1 was tested. Which “hERG current change (%, negative = inhibition) at 10uM” value did it give?
A: 6.88%

Q: With Cc1ccc(OCCC(=O)OCC(=O)c2c(N)n(CC(C)C)c(=O)n(C)c2=O)cc1 as the compound, how does the “hERG current change (%, negative = inhibition) at 10uM” value read?
A: -71.9%

Q: Which “hERG current change (%, negative = inhibition) at 10uM” value does the source give for O=c1cc(CSc2nnnn2-c2ccccc2)nc(Nc2ccc(F)cc2)[nH]1 here?
A: -4.69%

Q: How did the “hERG current change (%, negative = inhibition) at 10uM” value turn out when Cc1c(NC(=O)CN2CC(C)OC(C)C2)c(=O)n(-c2ccccc2)n1C.O=C(O)C(=O)O (stereo not drawn) was run?
A: 2.8%

Q: With Cc1cc(Br)ccc1NC(=O)CN(C)C(=O)CSC(=S)N1CCCC1 as the compound, how does the “hERG current change (%, negative = inhibition) at 10uM” value read?
A: -15.1%

Q: Which “hERG current change (%, negative = inhibition) at 10uM” value does the source give for COc1cc(OC)nc(Oc2cc(/C=N/O)ccc2OC)n1 here?
A: 0.516%

Q: For COc1ccc(NC(=O)CC2SC3=NCCN3C2=O)cc1 (stereo not drawn), which “hERG current change (%, negative = inhibition) at 10uM” value is on record?
A: 29.5%

Q: With COc1cc(CC(=O)Nc2nc(-c3ccc(F)c(F)c3)cs2)cc(OC)c1OC as the compound, how does the “hERG current change (%, negative = inhibition) at 10uM” value read?
A: 5.01%

Q: Which “hERG current change (%, negative = inhibition) at 10uM” value does the source give for CCC(=O)N1CCCc2cc(S(=O)(=O)N3CCCc4ccccc43)ccc21 here?
A: -23.6%

Q: Which “hERG current change (%, negative = inhibition) at 10uM” value does the source give for COc1cc(NC(=S)NC(=O)c2ccccc2F)ccc1NC(=O)c1ccco1 here?
A: 12.3%

Q: Cc1ccc(C)c(-c2csc(NC(=O)c3c(C)noc3C)n2)c1 was tested. Which “hERG current change (%, negative = inhibition) at 10uM” value did it give?
A: -4.93%

Q: With Cc1ccc(-c2nnc3ccc(SCC(=O)NCc4ccco4)nn23)cc1 as the compound, how does the “hERG current change (%, negative = inhibition) at 10uM” value read?
A: -6.59%

Q: With O=C(CSc1ncn[nH]1)NCc1ccccc1 as the compound, how does the “hERG current change (%, negative = inhibition) at 10uM” value read?
A: -6.75%

Q: How did the “hERG current change (%, negative = inhibition) at 10uM” value turn out when COP(=S)(OC)c1c(C)nn(CCC#N)c1NC(=O)c1ccc(Cl)cc1 was run?
A: 15.3%
